What follows are compounds tested against Recombinant heterodimeric HCV NS3/NS4A protease (strain 1a) (Hepatitis C virus genotype 1a, UniProt P27958) (assay: Spectrophotometric assay for HCV serine protease inhibitory activity (chromogenic ester substrates)). Details: Table 3A; class symbols; read-out: Ki* Range.
Assay type: biochemical

**Q.** `CCCC(NC(=O)[C@@H]1[C@@H]2[C@H](CN1C(=O)[C@@H](NC(=O)NC(CCC)(CCC)CS(=O)(=O)C(C)(C)C)C1(C)CCCCC1)C2(C)C)C(=O)C(=O)NC1CC1` (some centres unmarked) [Compound 461] was tested. Which Ki did it give?
**A.** Its Ki is 75 to 250 nM.

**Q.** `C=CCNC(=O)C(=O)C(CC1CC1)NC(=O)[C@@H]1[C@@H]2[C@H](CN1C(=O)[C@@H](NC(=O)NC(CCC)(CCC)CS(=O)(=O)C(C)(C)C)C1(C)CCCCC1)C2(C)C` (some centres unmarked) [Compound 462] was tested. Which Ki did it give?
**A.** The Ki was greater than 250 nM.

**Q.** How did the Ki turn out when `CC1([C@H](NC(=O)N[C@@]2(CS(=O)(=O)C(C)(C)C)C[C@H]3C[C@H]3C2)C(=O)N2C[C@H]3[C@@H]([C@H]2C(=O)NC(CC2CC2)C(=O)C(=O)NC2CC2)C3(C)C)CCCCC1` (some centres unmarked) [Compound 463] was run?
**A.** The Ki was 75 to 250 nM.

**Q.** With `CCCC(NC(=O)[C@@H]1[C@@H]2[C@H](CN1C(=O)[C@@H](NC(=O)N[C@@]1(CS(=O)(=O)C(C)(C)C)C[C@H]3C[C@H]3C1)C1(C)CCCCC1)C2(C)C)C(=O)C(=O)NC1CC1` (some centres unmarked) [Compound 464] as the compound, how does the Ki read?
**A.** Its Ki is less than 75 nM.

**Q.** How did the Ki turn out when `CC1([C@H](NC(=O)NC2(CS(=O)(=O)c3ccccc3)CCCCC2)C(=O)N2C[C@H]3[C@@H]([C@H]2C(=O)NC(CC2CC2)C(=O)C(=O)NC2CC2)C3(C)C)CCCCC1` (some centres unmarked) [Compound 465] was run?
**A.** Its Ki is 75 to 250 nM.

**Q.** Which Ki does the source give for `C=CCNC(=O)C(=O)C(CC1CC1)NC(=O)[C@@H]1[C@@H]2[C@H](CN1C(=O)[C@@H](NC(=O)N[C@@]1(CS(=O)(=O)C(C)(C)C)C[C@H]3C[C@H]3C1)C1(C)CCCCC1)C2(C)C` (some centres unmarked) [Compound 466] here?
**A.** The Ki was less than 75 nM.

**Q.** For `CC1([C@H](NC(=O)NC2(CS(=O)(=O)C(C)(C)C)CCCCC2)C(=O)N2C[C@H](C(F)(F)F)C[C@H]2C(=O)NC(CC2CC2)C(=O)C(=O)NC2CC2)CCCCC1` (some centres unmarked) [Compound 467], which Ki is on record?
**A.** Its Ki is 75 to 250 nM.

**Q.** With `C=CCNC(=O)C(=O)C(CC1CC1)NC(=O)[C@@H]1[C@@H]2[C@H](CN1C(=O)[C@@H](NC(=O)N[C@]1(CS(=O)(=O)C(C)(C)C)C[C@H]3C[C@H]3C1)C1(C)CCCCC1)C2(C)C` (some centres unmarked) [Compound 468] as the compound, how does the Ki read?
**A.** Its Ki is 75 to 250 nM.

**Q.** With `C#CCCC(NC(=O)[C@@H]1[C@@H]2[C@H](CN1C(=O)[C@@H](NC(=O)N[C@]1(CS(=O)(=O)C(C)(C)C)C[C@H]3C[C@H]3C1)C1(C)CCCCC1)C2(C)C)C(=O)C(=O)NCC=C` (some centres unmarked) [Compound 469] as the compound, how does the Ki read?
**A.** Its Ki is less than 75 nM.

**Q.** For `CC1([C@H](NC(=O)N[C@]2(CS(=O)(=O)C(C)(C)C)C[C@H]3C[C@H]3C2)C(=O)N2C[C@H]3[C@@H]([C@H]2C(=O)NC(CC2CC2)C(=O)C(=O)NC2CC2)C3(C)C)CCCCC1` (some centres unmarked) [Compound 470], which Ki is on record?
**A.** Its Ki is 75 to 250 nM.

**Q.** `CC1([C@H](NC(=O)NC2(CS(=O)(=O)C(C)(C)C)CCCCC2)C(=O)N2C[C@H]3[C@@H]([C@H]2C(=O)NC(CCC2CC2)C(=O)C(=O)NC2CC2)C3(C)C)CCCCC1` (some centres unmarked) [Compound 472] was tested. Which Ki did it give?
**A.** The Ki was less than 75 nM.

**Q.** Which Ki does the source give for `C=CCNC(=O)C(=O)C(CC1CC1)NC(=O)[C@@H]1[C@@H]2[C@H](CN1C(=O)[C@@H](NC(=O)N[C@@]1(CS(=O)(=O)C(C)(C)C)[C@H](C)CCC[C@@H]1C)C1(C)CCCCC1)C2(C)C` (some centres unmarked) [Compound 473] here?
**A.** Its Ki is less than 75 nM.

**Q.** How did the Ki turn out when `C=CCNC(=O)C(=O)C(CCCC)NC(=O)[C@@H]1[C@@H]2[C@H](CN1C(=O)[C@@H](NC(=O)N[C@@]1(CS(=O)(=O)C(C)(C)C)[C@H](C)CCC[C@@H]1C)C1(C)CCCCC1)C2(C)C` (some centres unmarked) [Compound 474] was run?
**A.** Its Ki is less than 75 nM.

**Q.** With `CCCC(C)(C)S(=O)(=O)CC1(NC(=O)N[C@H](C(=O)N2C[C@H]3[C@@H]([C@H]2C(=O)NC(CC2CC2)C(=O)C(=O)NC2CC2)C3(C)C)C(C)(C)C)CCCCC1` (some centres unmarked) [Compound 475] as the compound, how does the Ki read?
**A.** The Ki was less than 75 nM.

**Q.** With `CC(C)S(=O)(=O)CC1(NC(=O)N[C@H](C(=O)N2C[C@H]3[C@@H]([C@H]2C(=O)NC(CC2CC2)C(=O)C(=O)NC2CC2)C3(C)C)C(C)(C)C)CCCCC1` (some centres unmarked) [Compound 476] as the compound, how does the Ki read?
**A.** The Ki was 75 to 250 nM.

**Q.** For `CC(C)(C)[C@H](NC(=O)NC1(CS(=O)(=O)C(C)(C)C)CCCCC1)C(=O)N1C[C@H]2[C@@H]([C@H]1C(=O)NC(CCC1CC1)C(=O)C(=O)NC1CC1)C2(C)C` (some centres unmarked) [Compound 477], which Ki is on record?
**A.** The Ki was less than 75 nM.

**Q.** How did the Ki turn out when `CCNC(=O)C(=O)C(CCC1CC1)NC(=O)[C@@H]1[C@@H]2[C@H](CN1C(=O)[C@@H](NC(=O)NC1(CS(=O)(=O)C(C)(C)C)CCCCC1)C(C)(C)C)C2(C)C` (some centres unmarked) [Compound 478] was run?
**A.** The Ki was less than 75 nM.
